Assay results published in EP4775226A1, “ANTIBODY DRUG CONJUGATE TARGETING GPC3 AND USE THEREOF” (priority 2023, dated 2025).
Read-outs that look alike come from different tables or passages of the source.

Columns and labels:
[1] = tested on: PDX model LI6653 of nude mice with human liver cancer; settings: tail vein on Day 0 and Day 7, Day 16
Protocol: The in vivo anti-tumor activities of Hu 52H5D3B8-8-MCC-AAN-Exa (ADC-2) and Hu 52H5D3B8-8-MCC-AAQ-Exa (ADC-4) were also tested in the LI6653 PDX model of mice with human liver cancer for comparison.
The process of the establishment of a PDX model of nude mice with human liver cancer was as follows: Tumor tissues were harvested from tumor-bearing mice in a model with a human-derived liver cancer xenograft, cut into tumor fragments with a diameter of 2-3 mm, and inoculated subcutaneously at the right anterior scapular region of BALB/c Nude mice. When the average tumor volume of the tumor-bearing mice reached about 170-200 mm^3, they were randomized and administrated according to tumor size, and the day when grouping was carried out was recorded as Day 0. Six mice were included in each group. Tumor volume uniformity and body weight balance between groups were ensured. There were a total of 6 groups, including vehicle group, Non-binding-MCC-AAN-Exa (DAR8) (10 mg/kg) control administration group, Hu 52H5D3B8-8-MCC-AAN-Exa (ADC-2, 10 and 3 mg/kg) administration groups, and Hu 52H5D3B8-8-MCC-AAQ-Exa (ADC-4, 10 and 3 mg/kg) administration groups. On Day 0 and Day 7, administration was carried out via the tail vein once, respectively.
Data analysis: The mice were measured twice a week for body weight and tumor volume during the experiment. The calculation formula for the tumor volume (TV) is: TV = l × w^2 / 2, in which l and w represent the measured length and width of the tumor, respectively. According to the measurement results, the relative tumor volume (RTV) was calculated by RTV = Vf / V0, in which V0 was the tumor volume measured at the time of grouping for administration (i.e., Day 0), and Vf was the tumor volume measured on the last day. Relative tumor proliferation rate (T/C) (%) = (RTV in drug administration group / RTV in vehicle group) × 100%. When T/C (%) ≤ 40% and P < 0.05, the test sample was believed to have a significant inhibitory effect on tumor growth.

Huh7 cells = settings: binding to Huh7 cells, FACS
Protocol: Huh7 liver cancer cells growing in log phase were collected. After centrifugation, the cells were resuspended in FACS buffer (PBS + 3% FBS), the cell density was adjusted, and the cells were dispensed to a 96-well U-bottom cell culture plate, such that each well contained 200,000-500,000 cells. The antibody or ADC diluted with FACS buffer in a 4-fold gradient manner was added and uniformly mixed, such that the final starting concentration of each sample was finally 10 µg/mL. The 96-well plate was incubated at 4°C for 60 min. The cells in the wells were thoroughly washed with FACS buffer to remove unbound antibodies or ADCs. Goat anti-Human IgG (H+L) Cross-Adsorbed Secondary Antibody, Alexa Fluor™ 647 (Invitrogen, #A-21445), diluted with FACS buffer at 1 : 1,000 was added and incubated at 4°C in the dark for 30-60 min. The cells in the wells were thoroughly washed with FACS buffer to remove unbound secondary antibodies. The cell sample was analyzed for fluorescence signal by CytoFLEX flow cytometer (Beckman Coulter). […] Table 3: Binding of GPC3 antibody and each ADC to Huh7 cells (EC50)

[2] = tested on: PDX model LIV#219 of nude mice with human liver cancer; test: In vivo anti-tumor activity, LIV#219 PDX model; set-up: species or system BALB/c nude mice; settings: tail vein on Day 0 and Day 7, Day 29
Protocol: The in vivo anti-tumor activity of GPC3-ADC was tested in the LIV#219 PDX model of mice with human liver cancer.
The process of the establishment of a LIV#219 PDX model of nude mice with human liver cancer (Genendesign Co., Ltd.) was as follows: A tumor tissue with a volume size of about 15-30 mm^3 was transplanted subcutaneously under the right rear back of the BALB/c nude mice. […] Six mice were included in each group.

Molecule	relative tumor proliferation rate T/C (%) ([1]; 3 mg/kg)	relative tumor proliferation rate T/C (%) ([1]; 10 mg/kg)	EC50 (Huh7 cells)	relative tumor proliferation rate T/C (%) ([2]; 3 mg/kg)	relative tumor proliferation rate T/C (%) ([2]; 10 mg/kg)
Hu 52H5D3B8-8-mcc-AAN-Exatecan (conjugate, antibody conjugate of Hu 52H5D3B8-8 antibody with mcc-AAN-Exatecan, DAR of 8.0) heavy: EVQLVQSGAEVKKPGASVKVSCKASGYTFTDYEMHWVRQAPGQGLEWMGAIHPGSGGTAYNQKFKGRVTMTADKSISTAYMELSRLRSDDTAVYYCTRFYSYAYWGQGTLVTVSS[not shown - human IgG1 constant region] light: DVVMTQTPLSLSVTPGQPASISCRSSQSLVHSNGNTYLQWYLQKPGQSPQLLIYKVSNRFSGVPDRFSGSGSGTDFTLKISRVEAEDVGVYFCSQSIHVPYTFGGGTKVEIKRTVAAPSVFIFPPSDEQLKSGTASVVCLLNNFYPREAKVQWKVDNALQSGNSQESVTEQDSKDSTYSLSSTLTLSKADYEKHKVYACEVTHQGLSSPVTKSFNRGEC	31.81%	17.46%	0.06097 µg/mL	77.71%	12.44%
Hu 52H5D3B8-8-mc-AAQ-Exatecan (conjugate, antibody conjugate of Hu 52H5D3B8-8 antibody with mc-AAQ-Exatecan, DAR of 8.0) heavy: EVQLVQSGAEVKKPGASVKVSCKASGYTFTDYEMHWVRQAPGQGLEWMGAIHPGSGGTAYNQKFKGRVTMTADKSISTAYMELSRLRSDDTAVYYCTRFYSYAYWGQGTLVTVSS[not shown - human IgG1 constant region] light: DVVMTQTPLSLSVTPGQPASISCRSSQSLVHSNGNTYLQWYLQKPGQSPQLLIYKVSNRFSGVPDRFSGSGSGTDFTLKISRVEAEDVGVYFCSQSIHVPYTFGGGTKVEIKRTVAAPSVFIFPPSDEQLKSGTASVVCLLNNFYPREAKVQWKVDNALQSGNSQESVTEQDSKDSTYSLSSTLTLSKADYEKHKVYACEVTHQGLSSPVTKSFNRGEC	–	–	0.06331 µg/mL	47.29%	6.75%
Hu 52H5D3B8-8-mcc-AAQ-Exatecan [ADC-4] (conjugate, antibody conjugate of Hu 52H5D3B8-8 antibody with mcc-AAQ-Exatecan, DAR of 8.0) heavy: EVQLVQSGAEVKKPGASVKVSCKASGYTFTDYEMHWVRQAPGQGLEWMGAIHPGSGGTAYNQKFKGRVTMTADKSISTAYMELSRLRSDDTAVYYCTRFYSYAYWGQGTLVTVSS[not shown - human IgG1 constant region] light: DVVMTQTPLSLSVTPGQPASISCRSSQSLVHSNGNTYLQWYLQKPGQSPQLLIYKVSNRFSGVPDRFSGSGSGTDFTLKISRVEAEDVGVYFCSQSIHVPYTFGGGTKVEIKRTVAAPSVFIFPPSDEQLKSGTASVVCLLNNFYPREAKVQWKVDNALQSGNSQESVTEQDSKDSTYSLSSTLTLSKADYEKHKVYACEVTHQGLSSPVTKSFNRGEC	21.10%	13.05%	0.06752 µg/mL	53.71%	7.37%
